From the supplement of paper PMC8728848
Some of the results follow.

What was measured:
Experiment in all cases: glycan array binding signal (z-score within array); higher = stronger binding
Conditions in all cases: glycan notation: IUPAC condensed, linker removed
[1] = molecular target: Neu5Ac(a2-3)Gal(b1-3)GalNAc(b1-3)Gal(b1-4)GlcNAc
Outline: (§1)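 Columns mapping to the same glycan were averaged after glycan names were converted to IUPAC-condensed notation. The data come from 3228 arrays in the Consortium for Functional Glycomics database, limited to those with an available protein sequence. Binding is reported as a within-array Z-score averaged across arrays of one protein sequence and across linkers.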

[2] = molecular target: Neu5Ac(a2-3)Gal(b1-3)GalNAc(b1-4)[Neu5Ac(a2-3)]Gal(b1-4)Glc
Outline: as §1

[3] = molecular target: Neu5Ac(a2-3)Gal(b1-3)GalNAc6S
Outline: as §1

[4] = molecular target: Neu5Ac(a2-3)Gal(b1-3)GlcNAc
Outline: as §1

[5] = molecular target: Neu5Ac(a2-3)Gal(b1-3)GlcNAc6S
Outline: as §1

[6] = molecular target: Neu5Ac(a2-3)Gal(b1-3)[Fuc(a1-4)]GlcNAc
Outline: as §1

[7] = molecular target: Neu5Ac(a2-3)Gal(b1-3)[Fuc(a1-4)]GlcNAc(b1-3)Gal(b1-4)[Fuc(a1-3)]GlcNAc
Outline: as §1

[8] = molecular target: Neu5Ac(a2-3)Gal(b1-3)[Neu5Ac(a2-3)Gal(b1-4)]GlcNAc
Outline: as §1

[9] = molecular target: Neu5Ac(a2-3)Gal(b1-3)[Neu5Ac(a2-6)]GalNAc
Outline: as §1

[10] = molecular target: Neu5Ac(a2-3)Gal(b1-4)Glc
Outline: as §1

[11] = molecular target: Neu5Ac(a2-3)Gal(b1-4)GlcNAc
Outline: as §1

[12] = molecular target: Neu5Ac(a2-3)Gal(b1-4)GlcNAc(b1-2)Man(a1-3)[Neu5Ac(a2-3)Gal(b1-4)GlcNAc(b1-2)Man(a1-6)]Man(b1-4)GlcNAc(b1-4)GlcNAc
Outline: as §1

[13] = molecular target: Neu5Ac(a2-3)Gal(b1-4)GlcNAc(b1-3)Gal(b1-4)GlcNAc
Outline: as §1

[14] = molecular target: Neu5Ac(a2-3)Gal(b1-4)GlcNAc(b1-3)Gal(b1-4)GlcNAc(b1-3)Gal(b1-4)GlcNAc
Outline: as §1

[15] = molecular target: Neu5Ac(a2-3)Gal(b1-4)GlcNAc(b1-3)Gal(b1-4)[Fuc(a1-3)]GlcNAc
Outline: as §1

[16] = molecular target: Neu5Ac(a2-3)Gal(b1-4)GlcNAc6S
Outline: as §1

[17] = molecular target: Neu5Ac(a2-3)Gal(b1-4)[Fuc(a1-3)]GlcNAc
Outline: as §1

[18] = molecular target: Neu5Ac(a2-3)Gal(b1-4)[Fuc(a1-3)]GlcNAc(b1-3)Gal
Outline: as §1

[19] = molecular target: Neu5Ac(a2-3)Gal(b1-4)[Fuc(a1-3)]GlcNAc(b1-3)Gal(b1-4)GlcNAc
Outline: as §1

[20] = molecular target: Neu5Ac(a2-3)Gal(b1-4)[Fuc(a1-3)]GlcNAc(b1-3)Gal(b1-4)[Fuc(a1-3)]GlcNAc(b1-3)Gal(b1-4)[Fuc(a1-3)]GlcNAc
Outline: as §1

[21] = molecular target: Neu5Ac(a2-3)Gal(b1-4)[Fuc(a1-3)]GlcNAc6S
Outline: as §1

[22] = molecular target: Neu5Ac(a2-3)Gal6S(b1-4)GlcNAc
Outline: as §1

[23] = molecular target: Neu5Ac(a2-3)Gal6S(b1-4)[Fuc(a1-3)]GlcNAc
Outline: as §1

[24] = molecular target: Neu5Ac(a2-3)GalNAc
Outline: as §1

[25] = molecular target: Neu5Ac(a2-3)GalNAc(b1-4)GlcNAc
Outline: as §1

[26] = molecular target: Neu5Ac(a2-3)[GalNAc(b1-4)]Gal(b1-4)Glc
Outline: as §1

[27] = molecular target: Neu5Ac(a2-3)[GalNAc(b1-4)]Gal(b1-4)GlcNAc
Outline: as §1

[28] = molecular target: Neu5Ac(a2-3)[Neu5Ac(a2-6)]GalNAc
Outline: as §1

[29] = molecular target: Neu5Ac(a2-6)Gal
Outline: as §1

[30] = molecular target: Neu5Ac(a2-6)Gal(b1-4)Glc
Outline: as §1

[31] = molecular target: Neu5Ac(a2-6)Gal(b1-4)GlcNAc
Outline: as §1

[32] = molecular target: Neu5Ac(a2-6)Gal(b1-4)GlcNAc(b1-3)Gal(b1-4)GlcNAc
Outline: as §1

[33] = molecular target: Neu5Ac(a2-6)Gal(b1-4)GlcNAc(b1-3)Gal(b1-4)[Fuc(a1-3)]GlcNAc(b1-3)Gal(b1-4)[Fuc(a1-3)]GlcNAc
Outline: as §1

[34] = molecular target: Neu5Ac(a2-6)Gal(b1-4)GlcNAc6S
Outline: as §1

[35] = molecular target: Neu5Ac(a2-6)GalNAc
Outline: as §1

[36] = molecular target: Neu5Ac(a2-6)GalNAc(b1-4)GlcNAc
Outline: as §1

[37] = molecular target: Neu5Ac(a2-8)Neu5Ac
Outline: as §1

[38] = molecular target: Neu5Ac(a2-8)Neu5Ac(a2-3)Gal(b1-4)Glc
Outline: as §1

B1: FaeGac (Escherichia coli) (protein)
chain: WMTGDFNGSVDIGGSITADDYRQKWEWKVGTGLNGFGNVLNDLTNGGTKLTITVTGNKPILLGRTKEAFATPVTGGVDGIPHIAFTDYEGASVVLRKPDGETNKNGLAYFVLPMKNAGGTKVGSVKVNASYAGVLGRGGVTSADGELLSLFADGLSSIFYGGLPRGSELSAGSAAAARTKLFGSLSRDDILGQIQRVNANVTSLVDVAGSYRENMEYTDGNVVSAAYALGIANGQTIEATFNQAVTTSTQWSAPLNVAITYY
How did the “glycan array binding signal (z-score)” value [1] turn out when B1 was run?
Its value is 0.164.

What about the “glycan array binding signal (z-score)” value [2] of the same binder?
The value was 0.693.

And the “glycan array binding signal (z-score)” value [3]?
Its value is 2.57.

What about the “glycan array binding signal (z-score)” value [4] of the same binder?
The value was -0.167.

And the “glycan array binding signal (z-score)” value [5]?
Its value is -0.905.

What about the “glycan array binding signal (z-score)” value [6] of the same binder?
The value was 0.445.

What about the “glycan array binding signal (z-score)” value [7] of the same binder?
Its value is -0.262.

What about the “glycan array binding signal (z-score)” value [8] of the same binder?
The value was 0.212.

What about the “glycan array binding signal (z-score)” value [9] of the same binder?
The value was -0.501.

And the “glycan array binding signal (z-score)” value [10]?
Its value is -0.81.

What about the “glycan array binding signal (z-score)” value [11] of the same binder?
Its value is -0.528.

What about the “glycan array binding signal (z-score)” value [12] of the same binder?
The value was 0.674.

What about the “glycan array binding signal (z-score)” value [13] of the same binder?
Its value is 0.714.

What about the “glycan array binding signal (z-score)” value [14] of the same binder?
Its value is -0.615.

And the “glycan array binding signal (z-score)” value [15]?
The value was -0.824.

What about the “glycan array binding signal (z-score)” value [16] of the same binder?
Its value is 2.73.

And the “glycan array binding signal (z-score)” value [17]?
Its value is 1.26.

What about the “glycan array binding signal (z-score)” value [18] of the same binder?
Its value is -0.443.

And the “glycan array binding signal (z-score)” value [19]?
Its value is 0.987.

What about the “glycan array binding signal (z-score)” value [20] of the same binder?
Its value is 0.687.

What about the “glycan array binding signal (z-score)” value [21] of the same binder?
Its value is 0.715.

What about the “glycan array binding signal (z-score)” value [22] of the same binder?
The value was -0.782.

What about the “glycan array binding signal (z-score)” value [23] of the same binder?
Its value is 0.096.

What about the “glycan array binding signal (z-score)” value [24] of the same binder?
Its value is -0.327.

What about the “glycan array binding signal (z-score)” value [25] of the same binder?
The value was -0.706.

And the “glycan array binding signal (z-score)” value [26]?
Its value is 1.31.

And the “glycan array binding signal (z-score)” value [27]?
The value was -0.863.

What about the “glycan array binding signal (z-score)” value [28] of the same binder?
The value was -0.407.

And the “glycan array binding signal (z-score)” value [29]?
The value was -0.713.

And the “glycan array binding signal (z-score)” value [30]?
The value was -0.378.

What about the “glycan array binding signal (z-score)” value [31] of the same binder?
The value was 0.04.

And the “glycan array binding signal (z-score)” value [32]?
Its value is -0.875.

What about the “glycan array binding signal (z-score)” value [33] of the same binder?
The value was 1.87.

And the “glycan array binding signal (z-score)” value [34]?
The value was 0.045.

And the “glycan array binding signal (z-score)” value [35]?
Its value is 1.98.

And the “glycan array binding signal (z-score)” value [36]?
Its value is -0.438.

And the “glycan array binding signal (z-score)” value [37]?
The value was 0.421.

What about the “glycan array binding signal (z-score)” value [38] of the same binder?
Its value is 0.612.
